Data published in patent US8937048B2, “Anti-angiogenic compounds” (Covx Technologies Ireland, Limited, priority 2008, dated 2015).

B1: 2053 (conjugate)
peptide: VEPNCDIHVKWVWECFERLYGLE
heavy: EVQLVESGGGLVQPGGSLRLSCAASGFTFSNYWMSWVRQSPEKGLEWVSEIRLRSDNYATHYAESVKGRFTISRDNSKNTLYLQMNSLRAEDTGIYYCKTYFYSFSYWGQGTLVTVSSASTKGPSVFPLAPSSKSTSGGTAALGCLVKDYFPEPVTVSWNSGALTSGVHTFPAVLQSSGLYSLSSVVTVPSSSLGTQTYICNVNHKPSNTKVDKRV[human IgG1 Fc left out here]
light: ELQMTQSPSSLSASVGDRVTITCRSSQSLLHTYGSPYLNWYLQKPGQSPKLLIYKVSNRFSGVPSRFSGSGSGTDFTLTISSLQPEDFAVYFCSQGTHLPYTFGGGTKVEIKRTVAAPSVFIFPPSDEQLKSGTASVVCLLNNFYPREAKVQWKVDNALQSGNSQESVTEQDSKDSTYSLSSTLTLSKADYEKHKVYACEVTHQGLSSPVTKSFNRGEC
B2: 2073 (conjugate)
peptide: VEPNCDIHVMWEWECFKRL
heavy: B1 heavy
light: B1 light
B3: 2046 (conjugate)
peptide: VEPNCDIHVKWVWECFERLYGPL
heavy: B1 heavy
light: B1 light
B4: 2069 (conjugate)
peptide: VEPNCDIHVKWEWECFERL
heavy: B1 heavy
light: B1 light
B5: 2071 (conjugate)
peptide: VEPNCDIHVMWKWECFERL
heavy: B1 heavy
light: B1 light
B6: 2048 (conjugate)
peptide: VEPNCDIHVKWVWECFERLYGPF
heavy: B1 heavy
light: B1 light
B7: 2052 (conjugate)
peptide: VEPNCDIHVMWVWECFKRLYGLE
heavy: B1 heavy
light: B1 light
B8: 2045 (conjugate)
peptide: VEPNCDIHVMWVWECFKRLYGPL
heavy: B1 heavy
light: B1 light
B9: 2028 (conjugate)
peptide: KEPNCDIHVMWEWECFERL
heavy: B1 heavy
light: B1 light

Legend:
[1] = Mouse PK, serum analysed by VEGF ELISA (VEGF coated ELISA); type: in vivo, Swiss Webster mice; conditions: for Half life: Table 3, ELISA format not given
Procedure: (§1) PK studies were conducted using male Swiss Webster mice (CFW, Charles Rivers Hollister, Calif.) weighing approximately 20-22 grams at the start of dosing. [VEGF-Peptide]-[Linker]-[Antibody] complexes were given by IV administration through the tail vein, blood samples were taken from 3 mice per time point via retro orbital sinus bleed at the following time points: 0.08, 0.5, 1, 3, 5, 7 and 24 hours. […] For the remaining time points (32-120 hrs), mice were killed by CO2 inhalation and terminal cardiac samples were drawn. Protease Inhibitor cocktail was added to all blood tubes prior to sample collection. Blood was allowed to clot on ice for 30 minutes and then centrifuged at 12000 rpm for 5-10 minutes at 4° C. to collect serum and immediately stored at −80° C. until analysis via ELISA. Dosing solutions were used to establish the standard curves for serum sample analysis by VEGF Reverse ELISA. Aliquots of each serum sample were analyzed by either VEGF Reverse ELISA (also described herein as IgG Coated ELISA) or VEGF ELISA (VEGF Coated ELISA).
After washing the plates three times with 1× washing buffer (KPL Cat#50-65-00) and blocking with Superblock (Scytek #AAA500) at room temperature (RT) for 1 hour, prepared dosing solution standards (range: 3.91-500 ng/ml) and serum samples were added to the plate and incubated for 1 hour to allow binding of [VEGF-Peptide]-[Linker]-[Antibody] complexes to the coated VEGF on the plates. The plates were then washed three times with washing buffer, diluted goat anti-human IgG-HRP (1:5000) (Bethyl A80-104P-52) was added and incubated at RT for 1 hour, followed by addition of tetramethylbenzidine (TMB) substrate (Pierce, Cat#34021) for color development. The reaction was stopped with 2 M H2SO4. OD450 was measured using SpectraMax (Molecular Device) with a correction wavelength of 540 nm. Serum concentrations of the [VEGF-Peptide]-[Linker]-[Antibody] complexes were calculated using the standard curves. Serum [VEGF-Peptide]-[Linker]-[Antibody] complexes concentrations, as determined by ELISA, were plotted as a function of time. Further data analysis was undertaken using WinNonlin version 4.1 (Pharsight Corporation) to determine the β half life (T1/2) and the area under the curve (AUC) for [VEGF-Peptide]-[Linker]-[Antibody] complexes.

[2] = Mouse PK, serum analysed by VEGF Reverse ELISA (IgG coated ELISA); type: in vivo, Swiss Webster mice; conditions: IgG coated ELISA (values in square brackets)
Procedure: as §1
High-binding half-well 96-well plates (Costar #3690) were coated with 1:100 goat anti-human IgG in coating buffer (Bethyl Laboratories ELISA kit, Cat# E80-104) at 4° C. overnight. After washing the plates three times with 1× washing buffer (KPL Cat#50-65-00) and blocking with Superblock (Scytek #AAA500) at room temperature (RT) for 1 hour, prepared dosing solution standards (range: 3.91-500 ng/ml) and serum samples were added to the plate and incubated for 1 hour on a plate shaker to allow binding of [VEGF-Peptide]-[Linker]-[Antibody] complexes to the plates. A fixed concentration of VEGF (3 nM) was then added and incubated for 1 hour on a plate shaker. The plates were then washed three times with washing buffer, and a diluted (1:500) biotinylated anti-human VEGF antibody (R&D systems, Cat# BAF293) was added and incubated at RT for 2 hours. After washing the plates, streptavidin HRP conjugate (1:200 in Superblock) (R&D systems, Cat# DY998) was added to detect the bound anti-VEGF antibody, followed by addition of tetramethylbenzidine (TMB) substrate (Pierce, Cat#34021) for color development. The reaction was stopped with 2 M H2SO4. OD450 was measured using SpectraMax (Molecular Device) with a correction wavelength of 540 nm. Serum concentrations of the [VEGF-Peptide]-[Linker]-[Antibody] complexes were calculated using the standard curves. Serum compound concentrations, as determined by ELISA, were plotted as a function of time. Further data analysis was undertaken using WinNonlin version 4.1 (Pharsight Corporation) to determine the β half life (T1/2) and the area under the curve (AUC) for [Peptide]-[Linker]-[Antibody] complexes.

Molecule	Half life [1] [h]	Half Life(Hrs) [IgG] Coated [2]	further results
B1	–	–	Half Life(Hrs) VEGF Coated ([1]; VEGF coated ELISA (values without brackets)): 36 h; VEGF half-life ([1]; mouse, text b307): approximately 36 hours
B2	83	–	–
B3	–	[19] Hrs	–
B4	52	–	–
B5	43	–	–
B6	–	[23] Hrs	–
B7	–	[38] Hrs	–
B8	–	[50^ Hrs	–
B9	32	–	–
